How the values were obtained:
Experiment in all cases: Tumor cell viability, CellTiter-Glo
Assay type in all cases: cell-based, human
U2932 = U2932 (NHL), 24 hours
Experimental: (§1) Tumor cells were seeded at 10,000 cells/well in 96-well plates in the recommended media containing 10% FBS and treated with a TRAIL receptor agonist protein made up of two polypeptides having the amino acid sequence set forth in SEQ ID NO: 19 for 24 hours at 37° C. in a humidified, 5% CO2 atmosphere. Cell viability was subsequently assessed using CellTiter-Glo® reagent as described by the manufacturer's instructions (Promega; Madison, Wis.). IC50 values were determined by non-linear regression analysis of the concentration response data normalized to non-treated control cells.

SKM-1 = settings: 24 hours
Experimental: as §1

SU-DHL-16 = SU-DHL-16 (NHL), 24 hours
Experimental: as §1

HT = HT (NHL), 24 hours
Experimental: as §1

BxPC3 = BxPC3 (Pancreatic), 24 hours
Experimental: as §1

HT-1080 = HT-1080 (Fibrosarcoma), 24 hours
Experimental: as §1

SU-DHL-2 = SU-DHL-2 (NHL), 24 hours
Experimental: as §1

RL = RL (NHL), 24 hours
Experimental: as §1

KG-1 = KG-1 (AML), 24 hours
Experimental: as §1

OCI-AML5 = OCI-AML5 (AML), 24 hours
Experimental: as §1

HCC1569 = HCC1569 (BrCa), 24 hours
Experimental: as §1

Colo205 = settings: 24 hours
Experimental: as §1

EOL-1 = EOL-1 (AML), 24 hours
Experimental: as §1

Capan-1 = Capan-1 (Pancreatic), 24 hours
Experimental: as §1

NCI-H522 = NCI-H522 (NSCLC), 24 hours
Experimental: as §1

Toledo = Toledo (NHL), 24 hours
Experimental: as §1

SU-DHL-5 = SU-DHL-5 (NHL), 24 hours
Experimental: as §1

SKNO-1 = SKNO-1 (AML), 24 hours
Experimental: as §1

NCI-H847 = NCI-H847 (NSCLC), 24 hours
Experimental: as §1

OCI-Ly18 = OCI-Ly18 (NHL), 24 hours
Experimental: as §1

UKE-1 = UKE-1 (AML), 24 hours
Experimental: as §1

OCI-Ly1 = OCI-Ly1 (NHL), 24 hours
Experimental: as §1

WSU-DLCL2 = WSU-DLCL2 (NHL), 24 hours
Experimental: as §1

NCI-H1944 = NCI-H1944 (NSCLC), 24 hours
Experimental: as §1

NCI-H1792 = NCI-H1792 (NSCLC), 24 hours
Experimental: as §1

NCI-H596 = NCI-H596 (NSCLC), 24 hours
Experimental: as §1

NCI-H2170 = NCI-H2170 (NSCLC), 24 hours
Experimental: as §1

NCI-H2347 = NCI-H2347 (NSCLC), 24 hours
Experimental: as §1

ULA = ULA (NHL), 24 hours
Experimental: as §1

SU-DHL-8 = SU-DHL-8 (NHL), 24 hours
Experimental: as §1

WSU-NHL = settings: 24 hours
Experimental: as §1

TF-1 = TF-1 (AML), 24 hours
Experimental: as §1

SW480 = SW480 (CRC), 24 hours
Experimental: as §1

OCI-Ly7 = OCI-Ly7 (NHL), 24 hours
Experimental: as §1

MOLM-13 = MOLM-13 (AML), 24 hours
Experimental: as §1

NCI-H838 = NCI-H838 (NSCLC), 24 hours
Experimental: as §1

NCI-H211 = NCI-H211 (SCLC), 24 hours
Experimental: as §1

Fadu-GFP = Fadu-GFP (H&N), 24 hours
Experimental: as §1

B1: SEQ ID NO: 19: made up of two polypeptides of SEQ ID NO: 19; three hinge cysteines, N297S aglycosylated CH2, glycosites at positions 168 and 337 (protein)
chain: QRVAAHITGTRGRSNTLSSPNSKNEKALGRKINSWESSRSGHSFLSNLHLRNGELVIHEKGFYYIYSQTYFRFQEEIKENTKNDKQMVQYIYKYTSYPDPILLMKSARNSCWSKDAEYGLYSIYQGGIFELKENDRIFVSVTNEHLIDMDHEASFFGAFLVGGSGSGNGSRVAAHITGTRGRSNTLSSPNSKNEKALGRKINSWESSRSGHSFLSNLHLRNGELVIHEKGFYYIYSQTYFRFQEEIKENTKNDKQMVQYIYKYTSYPDPILLMKSARNSCWSKDAEYGLYSIYQGGIFELKENDRIFVSVTNEHLIDMDHEASFFGAFLVGGSGSGNGSRVAAHITGTRGRSNTLSSPNSKNEKALGRKINSWESSRSGHSFLSNLHLRNGELVIHEKGFYYIYSQTYFRFQEEIKENTKNDKQMVQYIYKYTSYPDPILLMKSARNSCWSKDAEYGLYSIYQGGIFELKENDRIFVSVTNEHLIDMDHEASFFGAFLVGGPGSSSSSSSG[human IgG1 Fc with N297S (EU numbers) not written out]
modifications: homodimer
U2932
  IC50: 1 µg/mL
SKM-1; SKM-1 (AML)
  IC50: 0.00095 µg/mL
SKM-1; SKM-1 cells, increasing concentrations
  cell death / cell viability (FIG. 19): induces cell death
SU-DHL-16
  IC50: 0.54555 µg/mL
HT
  IC50: 1 µg/mL
BxPC3
  IC50: 0.016 µg/mL
HT-1080
  IC50: 0.377 µg/mL
SU-DHL-2
  IC50: 1 µg/mL
RL
  IC50: 1 µg/mL
KG-1
  IC50: 1 µg/mL
OCI-AML5
  IC50: 1.0326 µg/mL
HCC1569
  IC50: 0.219 µg/mL
Colo205; Colo205 (CRC)
  IC50: 0.0013 µg/mL
Colo205; Colo205 cells, increasing concentrations
  cell death / cell viability (FIG. 19): induces cell death
EOL-1
  IC50: 0.01831 µg/mL
Capan-1
  IC50: 0.393 µg/mL
NCI-H522
  IC50: 0.25987 µg/mL
Toledo
  IC50: 1 µg/mL
SU-DHL-5
  IC50: 0.08207 µg/mL
SKNO-1
  IC50: 1 µg/mL
NCI-H847
  IC50: 0.01453 µg/mL
OCI-Ly18
  IC50: 0.1962 µg/mL
UKE-1
  IC50: 0.20535 µg/mL
OCI-Ly1
  IC50: 0.41695 µg/mL
WSU-DLCL2
  IC50: 1 µg/mL
NCI-H1944
  IC50: 4.06875 µg/mL
NCI-H1792
  IC50: 0.06109 µg/mL
NCI-H596
  IC50: 0.3978 µg/mL
NCI-H2170
  IC50: 0.03016 µg/mL
NCI-H2347
  IC50: 0.08106 µg/mL
ULA
  IC50: 0.00844 µg/mL
SU-DHL-8
  IC50: 0.00136 µg/mL
WSU-NHL
  IC50: 0.0316 µg/mL
TF-1
  IC50: 1 µg/mL
SW480
  IC50: 0.132 µg/mL
OCI-Ly7
  IC50: 0.06376 µg/mL
MOLM-13
  IC50: 0.7221 µg/mL
NCI-H838
  IC50: 0.04448 µg/mL
NCI-H211
  IC50: 0.07258 µg/mL
Fadu-GFP
  IC50: >0.003 µg/mL

Reference: patent US9908927B2, “Single-chain trail-receptor agonist proteins” (AbbVie Inc., priority 2014, dated 2018)
